Source: patent US11207320B2, “Compositions and methods for cancer expressing PDE3A or SLFN12” (The Broad Institute, Inc., priority 2015, dated 2021)
This continues a long series; more values of the same kind are listed elsewhere.

Tested on: 766 cancer cell lines
Experiment: Large-scale cell-line viability measurements (766 cancer cell lines, 72 h, AUC)
Type: cell-based, human
Conditions: 72 hours
Method: Cell lines were treated for 72 hours with concentrations ranging from 66.4 μM-2 nM in 2-fold step dilutions.
To characterize cellular sensitivity to DNMDP further, 766 genomically characterized cancer cell lines were screened for DMNDP sensitivity at concentrations ranging from 66.4 μM to 2 nM in 2-fold dilution steps for 72 hours. From these cell lines, 22 cell lines were categorized as sensitive with a robust Z-score lower than −4, which represented multiple lineages including multiple melanoma cell lines, amongst others (Table 1).
The sensitivity of […] cancer cell lines (CCLs) was measured drawn from 23 different lineages to DNMDP. Each cell line was plated in its preferred media in white opaque 1536-plates at a density of 500 cells/well. After incubating overnight, DNMDP was added by acoustic transfer at 16 concentrations ranging from 66.4 μM-2 nM in 2-fold steps in duplicate (Labcyte Echo 555, Labcyte Inc., Sunnyvale, Calif.). After 72 hours treatment, cellular ATP levels were measured as a surrogate for viability (CELLTITERGLO®, Promega Corporation, Madison, Wis.) according to manufacturer's protocols using a ViewLux Microplate Imager (PerkinElmer, Waltham, Mass.) and normalized to background (media-only) and vehicle (DMSO)-treated control wells.
Concentration response curves were fit using nonlinear fits to 2- or 3-parameter sigmoid functions through all 16 concentrations with the low-concentration asymptote set to the DMSO-normalized value, and an optimal 8-point dose curve spanning the range of compound-sensitivity was identified. The area under the 8-point dose curve (AUC) was computed by numeric integration as a metric for sensitivity for further analysis. Similar sensitivity measurements have been obtained for a collection of 480 other compounds, enabling analyses that identify cell lines responding uniquely to DNMDP (see Broad Institute Cancer Therapeutics Response Portal, a dataset to identify comprehensively relationships between genetic and lineage features of human cancer cell lines and small-molecule sensitivities for complete list of compounds).

[1] = KIJK (HAEMATOPOIETIC AND LYMPHOID TISSUE)
[2] = KMS18 (HAEMATOPOIETIC AND LYMPHOID TISSUE)
[3] = KMS27 (HAEMATOPOIETIC AND LYMPHOID TISSUE)
[4] = M07E (HAEMATOPOIETIC AND LYMPHOID TISSUE)
[5] = MM1S (HAEMATOPOIETIC AND LYMPHOID TISSUE)
[6] = MOLT16 (HAEMATOPOIETIC AND LYMPHOID TISSUE)
[7] = MONOMAC1 (HAEMATOPOIETIC AND LYMPHOID TISSUE)

## CCN(CC)c1ccc(C2=NNC(=O)CC2C)cc1[N+](=O)[O-] (centres unmarked) [DNMDP, 6-(4-(diethylamino)-3-nitrophenyl)-5-methyl-4,5-dihydropyridazin-3(2H)-one]
[1]
  DNMDP AUC: 6.305
  Robust Z-score: −0.346
KMRC2 (KIDNEY)
  DNMDP AUC: 6.3393
  Robust Z-score: −0.31
KMRC3 (KIDNEY)
  DNMDP AUC: 6.3514
  Robust Z-score: −0.2973
KMRC20 (KIDNEY)
  DNMDP AUC: 6.3063
  Robust Z-score: −0.3447
[2]
  DNMDP AUC: 6.2973
  Robust Z-score: −0.3541
[3]
  DNMDP AUC: 6.2607
  Robust Z-score: −0.3925
KNS42 (CENTRAL NERVOUS SYSTEM)
  DNMDP AUC: 5.0791
  Robust Z-score: −1.633
KNS60 (CENTRAL NERVOUS SYSTEM)
  DNMDP AUC: 6.4642
  Robust Z-score: −0.1789
KPNSI9S (AUTONOMIC GANGLIA)
  DNMDP AUC: 5.6827
  Robust Z-score: −0.9992
KPNYN (AUTONOMIC GANGLIA)
  DNMDP AUC: 5.6717
  Robust Z-score: −1.011
KURAMOCHI (OVARY)
  DNMDP AUC: 6.3842
  Robust Z-score: −0.2629
L33 (PANCREAS)
  DNMDP AUC: 3.625
  Robust Z-score: −3.159
LI7 (LIVER)
  DNMDP AUC: 2.5414
  Robust Z-score: −4.296
LOVO (LARGE INTESTINE)
  DNMDP AUC: 6.4266
  Robust Z-score: −0.2184
LU65 (LUNG)
  DNMDP AUC: 6.3082
  Robust Z-score: −0.3427
[4]
  DNMDP AUC: 6.3511
  Robust Z-score: −0.2976
M059K (CENTRAL NERVOUS SYSTEM)
  DNMDP AUC: 5.3059
  Robust Z-score: −1.395
MDAMB157 (BREAST)
  DNMDP AUC: 6.5173
  Robust Z-score: −0.1232
MDAMB175VII (BREAST)
  DNMDP AUC: 6.2981
  Robust Z-score: −0.3533
MDAMB453 (BREAST)
  DNMDP AUC: 6.3691
  Robust Z-score: −0.2787
MFE296 (ENDOMETRIUM)
  DNMDP AUC: 5.5618
  Robust Z-score: −1.126
MG63 (BONE)
  DNMDP AUC: 5.3943
  Robust Z-score: −1.302
ML1 (THYROID)
  DNMDP AUC: 6.5066
  Robust Z-score: −0.1344
[5]
  DNMDP AUC: 6.3604
  Robust Z-score: −0.2879
[6]
  DNMDP AUC: 6.2966
  Robust Z-score: −0.3548
[7]
  DNMDP AUC: 2.9692
  Robust Z-score: −3.847
MPP89 (PLEURA)
  DNMDP AUC: 6.3817
  Robust Z-score: −0.2655
NCIH69 (LUNG)
  DNMDP AUC: 6.2243
  Robust Z-score: −0.4307
NCIH146 (LUNG)
  DNMDP AUC: 5.5773
  Robust Z-score: −1.11
NCIH196 (LUNG)
  DNMDP AUC: 2.5263
  Robust Z-score: −4.312
NCIH211 (LUNG)
  DNMDP AUC: 6.4058
  Robust Z-score: −0.2402
NCIH446 (LUNG)
  DNMDP AUC: 6.3331
  Robust Z-score: −0.3165
NCIH520 (LUNG)
  DNMDP AUC: 3.1351
  Robust Z-score: −3.673
NCIH647 (LUNG)
  DNMDP AUC: 3.2187
  Robust Z-score: −3.586
NCIH854 (LUNG)
  DNMDP AUC: 5.576
  Robust Z-score: −1.111
NCIH1105 (LUNG)
  DNMDP AUC: 6.2191
  Robust Z-score: −0.4362
NCIH1155 (LUNG)
  DNMDP AUC: 6.4497
  Robust Z-score: −0.1941
NCIH1339 (LUNG)
  DNMDP AUC: 6.3509
  Robust Z-score: −0.2978
NCIH1395 (LUNG)
  DNMDP AUC: 4.4473
  Robust Z-score: −2.296
NCIH1568 (LUNG)
  DNMDP AUC: 6.4489
  Robust Z-score: −0.195
NCIH1581 (LUNG)
  DNMDP AUC: 6.3747
  Robust Z-score: −0.2729
NCIH1666 (LUNG)
  DNMDP AUC: 3.6097
